Results: patent publication US6528270 (SUGEN, dated 2003)

Target: T1, P185 BCR-ABL (wild type) (human, UniProt P11274 1-426; P00519 27-1130, tyrosine-phosphorylated: BCR first exon sequences are phosphorylated on tyrosine by the ABL kinase; phosphorylated tyrosine 177)
T1 construct: Chimeric kinase; cDNA per McLaughlin et al. 1989; Expressed in Sf9 insect cells (baculovirus), COS cells, Rat1 fibroblasts, and native in ALL-1 cells; also called P185 wild type; BCR-ABL tyrosine kinase
Test: GST pull-down from 35S-labelled Sf9 lysates

T1 sequence (P11274 other isoform, or with tags, fused parts or gaps limits assumed): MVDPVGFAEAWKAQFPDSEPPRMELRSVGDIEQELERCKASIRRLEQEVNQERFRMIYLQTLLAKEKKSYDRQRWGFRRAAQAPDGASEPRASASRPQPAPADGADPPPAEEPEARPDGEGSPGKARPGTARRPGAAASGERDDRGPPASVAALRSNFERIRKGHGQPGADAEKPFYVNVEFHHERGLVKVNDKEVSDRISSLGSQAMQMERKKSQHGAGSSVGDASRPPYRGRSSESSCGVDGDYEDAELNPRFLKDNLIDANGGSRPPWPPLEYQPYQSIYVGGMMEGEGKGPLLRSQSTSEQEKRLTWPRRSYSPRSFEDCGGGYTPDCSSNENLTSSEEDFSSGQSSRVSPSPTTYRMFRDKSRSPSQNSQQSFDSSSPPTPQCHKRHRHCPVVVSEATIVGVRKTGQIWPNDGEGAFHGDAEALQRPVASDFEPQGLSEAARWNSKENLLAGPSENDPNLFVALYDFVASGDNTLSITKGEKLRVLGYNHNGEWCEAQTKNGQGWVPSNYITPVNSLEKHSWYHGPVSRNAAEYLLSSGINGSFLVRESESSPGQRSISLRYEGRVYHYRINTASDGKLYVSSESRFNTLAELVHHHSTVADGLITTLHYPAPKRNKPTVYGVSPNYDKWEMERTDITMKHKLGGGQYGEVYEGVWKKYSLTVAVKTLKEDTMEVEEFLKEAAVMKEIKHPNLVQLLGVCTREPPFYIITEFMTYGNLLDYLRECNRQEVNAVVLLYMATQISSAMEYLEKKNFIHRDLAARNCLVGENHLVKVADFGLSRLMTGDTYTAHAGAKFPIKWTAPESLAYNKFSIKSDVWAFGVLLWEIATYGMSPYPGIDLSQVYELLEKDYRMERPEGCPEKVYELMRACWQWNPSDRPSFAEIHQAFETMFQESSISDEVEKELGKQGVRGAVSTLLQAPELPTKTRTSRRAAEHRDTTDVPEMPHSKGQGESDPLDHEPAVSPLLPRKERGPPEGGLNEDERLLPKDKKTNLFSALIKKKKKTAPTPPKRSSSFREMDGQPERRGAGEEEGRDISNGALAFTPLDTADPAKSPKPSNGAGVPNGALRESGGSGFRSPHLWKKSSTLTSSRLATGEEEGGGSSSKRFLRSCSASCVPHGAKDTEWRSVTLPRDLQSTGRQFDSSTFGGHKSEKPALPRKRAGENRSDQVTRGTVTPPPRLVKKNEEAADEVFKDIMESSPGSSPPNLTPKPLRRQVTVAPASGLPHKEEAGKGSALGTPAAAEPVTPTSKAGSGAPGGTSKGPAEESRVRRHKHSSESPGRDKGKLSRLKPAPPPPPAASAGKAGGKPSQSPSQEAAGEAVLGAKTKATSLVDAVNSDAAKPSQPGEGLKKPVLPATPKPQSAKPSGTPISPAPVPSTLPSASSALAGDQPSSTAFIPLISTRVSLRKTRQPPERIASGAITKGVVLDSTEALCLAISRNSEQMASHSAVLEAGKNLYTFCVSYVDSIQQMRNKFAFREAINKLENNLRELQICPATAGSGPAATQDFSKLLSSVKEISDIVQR

binding result: no binding
B1: GST alone (other)
chain: not shown
notes: Control for the GST fusion pull-downs; also called glutathione S-transferase
